We go through 70 molecules from PubChem BioAssay (NCI).

Where “and” joins values, the source holds several entries; their conditions need not be identical. Identical values can stand only once.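 Grown in 96-well plates, cells were treated for 48 hours with each compound at five concentrations. Insufficient inhibition: endpoint recorded as highest concentration tested. GI50 = concentration required for 50% inhibition of growth. TGI denotes the concentration required for complete inhibition of growth.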

In this assay the test system is NCI-H322M lung. Kind of assay: inhibition of tumour cell growth, NCI panel, 48 h.
For the molecule `CSc1c(C(=O)Nc2ccccc2)c(N)n(N)c(=O)c1C#N`, the TGI is greater than 100 µM.

Consider `Cc1c(-c2ccccc2)cc(O)c2nc3ccccc3n12`, for which the TGI was greater than 100 µM. `COc1ccc(C2=C[C@]3(O)CCCN3C[C@@H]2c2ccc(OC)c(OC)c2)cc1` showed a TGI of 0.000354 µM. For `CS(=O)(=O)CCNCc1coc(-c2ccc3ncnc(Nc4ccc(OCc5ccccc5)cc4)c3c2)c1`, the GI50 was 3.25 µM and the TGI turned out to be 12.8 µM.

Molecule `CCOC(=O)C(NC(=O)Nc1ccc(C)cc1)(OCC)C(F)(F)F` (stereo not drawn) showed a TGI greater than 100 µM.

On to `Nn1c(C23CC4CC(CC(C4)C2)C3)n[nH]c1=S`, for which the TGI was greater than 100 µM. On the same count and under the same terms, the result for `CC(=O)Oc1c(C)c(-c2ccccc2)c(C)c(-c2ccccc2)c1C(=S)c1ccccc1` reads greater than 100 µM; that for `O=C(O)CCC1CCc2cccc(O)c2C1=O` (stereo not drawn), greater than 100 µM. As for `CCCCCCCCCCCCCCCCCCOC[C@H](COP(=O)(O)O[C@H]1[C@H](O)[C@@H](O)[C@H](O)C[C@H]1O)OC`, the GI50 was 93.9 µM and 11.2 µM; the TGI was > 100 µM and 23.5 µM. In the case of `CC(=O)OCC1OC(N2C(C)=C(C(C)=O)C(c3ccc(Cl)cc3)C(C#N)=C2S)C(OC(C)=O)C(OC(C)=O)C1OC(C)=O` (stereo not drawn), the TGI was greater than 100 µM.

Consider `CCN1C(=O)c2ccc3c4c(ccc(c24)C1=O)C(=O)N(CCCNCc1ccccc1OC)C3=O`, for which the GI50 was 0.756 µM and the TGI was found to be 2.92 µM. For `CC(C)(C)c1cc([N+](=O)[O-])cc([N+](=O)[O-])c1O`, the TGI was greater than 10 µM. For the molecule `CC(=O)C1C(c2ccccc2)C2(C)OC(=O)C(C#N)C12C` (stereo not drawn), the TGI was greater than 100 µM.

For the molecule `Cc1nnc(-c2ccc(C)c(-c3ccc(C(=O)Nc4cccc(C#N)c4)cc3)c2)o1`, the GI50 is greater than 25 µM and the TGI was greater than 25 µM. As to `C#CC1(O)C(COP(=O)(O)OCC(COP(=O)(O)OCC2OC(n3cc(F)c(=O)[nH]c3=O)CC2O)OCCCCCCCCCCCCCCCCCC)OC(n2ccc(N)nc2=O)C1O` (stereo not drawn), the GI50 was 0.69 µM and the TGI was greater than 23 µM. Regarding `COc1cc2c(cc1O)c(O)cc1c3cc(OC)c(OC)cc3c[n+](C)c21`, the TGI was greater than 100 µM. For the molecule `O=C1/C(=C\c2ccc([N+](=O)[O-])cc2)N(S(=O)(=O)c2ccccc2)c2ncccc21`, the TGI was greater than 100 µM. `O=C(Nc1cccc(O)c1)C(=O)C1C(=O)NC(=S)NC1=O` came in with a TGI greater than 100 µM. `CCN(CC)CCNC(Cc1ccccc1)c1ccc(OCc2ccccc2)cc1` (stereo not drawn): the GI50 was 7.15 µM and the TGI stood at 20.2 µM. On the same counts, the results for `CCCOC(=O)N[C@H]1CCc2c(Cl)c(OC)c(OC)c(OC)c2-c2ccc(SC)c(=O)cc21` are less than 0.01 µM and greater than 100 µM. In turn, `CC1(C)C2CCC1(C)C(N/C(Sc1ccccc1)=C(/C(Cl)=C(Cl)Cl)[N+](=O)[O-])C2` (stereo not drawn) came in with a TGI of 39.7 µM. `Cc1ccc(-n2[nH]nc(C(N)=O)c2=O)cc1` yielded a TGI greater than 100 µM.

`O=S(Cc1ccccc1)c1nc2ccccc2nc1-c1cccs1` (stereo not drawn) yielded a TGI of 30.1 µM. With `COc1ccc2c(c1)C(=O)CCc1cc(OC)c(OC)c(OC)c1-2`, the GI50 was less than 0.01 µM and the TGI was greater than 100 µM. Molecule `CCC1=CCN(c2cc(C)ccn2)OC1c1ccc(OC)cc1` (stereo not drawn) showed a TGI greater than 100 µM.

As to `O=C1NC(=S)S/C1=C/c1ccc2c(c1)OCO2`, the GI50 was 41.8 µM and the TGI is greater than 100 µM.

With `CNC(=O)OCc1c(COC(=O)NC)c(-c2ccc(-c3ccccc3)cc2)n(C)c1C`, the TGI came to 4.87 µM. Still for that read-out and setting: the result for `C=CC[C@]1(/C=N/O)CN(S(=O)(=O)CC[Si](C)(C)C)C[C@H]2CC=CC[C@H]21` reads 69.8 µM. Consider `COc1cc(Nc2ncccc2C(=O)Nc2nc3ccc(F)cc3s2)cc(OC)c1OC`, for which the GI50 is 3.71 µM and the TGI is greater than 100 µM. In the case of `N#C[S-].[La+3].c1cnc2c(c1)ccc1cccnc12.c1cnc2c(c1)ccc1cccnc12.c1cnc2c(c1)ccc1cccnc12`, the TGI is 10.4 µM.

Turning to `N[C@@H]1CCN(c2c(F)cc3c(=O)c(C(=O)O)cn4c3c2Oc2c-4ccc3c2ccc2ccccc23)C1`, the TGI was greater than 100 µM. For `COc1cc(C2c3cc4c(cc3OC(C)(N3CCCC3)C2C)OCO4)cc(OC)c1OC` (stereo not drawn), the TGI was greater than 17.6 µM. Still for that read-out and setting: the value for `CNC(=O)OCc1nc(SSC(C)(C)C)n(C)c1COC(=O)NC` was 31.5 µM; that for `Cc1cc(C)c2c(=O)cc(-c3cccc4ccccc34)[nH]c2n1` was greater than 100 µM. Same read-out and setting: the value for `Nc1ccccc1CCN1CCN(CCCc2ccccc2)CC1` was greater than 100 µM; that for `COc1c(=O)cc2cc[nH]c3cc[nH]c1c23` was greater than 100 µM; that for `COc1ccc2nc3cc(Cl)ccc3c(Sc3ccc([N+](=O)[O-])cc3C)c2c1` was greater than 100 µM. On to `Nc1ncc(-c2cnn(C3CCNCC3)c2)cc1-c1nc2cc(Cl)ccc2o1`, for which the GI50 was 1.84 µM and the TGI was 3.4 µM. The molecule `Cc1ccc(C2(O)CSC(=NC34CC5CC(CC(C5)C3)C4)N2C(P(=O)(O)O)P(=O)(O)O)cc1` (stereo not drawn) yielded a TGI greater than 100 µM.

In the case of `N#CSCC(Cl)=CCl` (mixture of isomers), the TGI is greater than 100 µM. Still for that read-out and setting: the result for `CC(C)(C)C1=C(Br)C(C(C)(C)C)OP1(=O)O` (stereo not drawn) reads greater than 100 µM. Consider `CN(c1ccc(NC(=O)Nc2c(Cl)cccc2Cl)cc1)c1ccnc(Nc2cccc(CS(C)(=O)=O)c2)n1`, for which the GI50 was 4.23 µM and the TGI was found to be 13 µM. Take `Cc1ccc(S(=O)(=O)N/N=C2\CCCCC23CCC(=O)NC3)cc1` (stereo not drawn): the TGI is greater than 100 µM. Regarding `O=C1OC(CCCN2CCCCC2)(c2ccccc2)CC12CCCC2` (stereo not drawn), the TGI was greater than 100 µM.

For the molecule `O=C(Oc1ccc[nH]c1=O)c1cc([N+](=O)[O-])cc([N+](=O)[O-])c1`, the GI50 was greater than 100 µM and the TGI is greater than 100 µM.

On to `C[C@]12CCc3sc(Nc4ccc(OC(F)(F)F)cc4)nc3C1=CC[C@@H]1[C@@H]2CC[C@]2(C)C(=O)CC[C@@H]12`, for which the GI50 was 6.05 µM and the TGI came to 48.9 µM. For `O=C(O)CCCc1ccc2ccc3ccccc3c2c1`, the TGI is greater than 100 µM.

Turning to `Cc1ccc(C(=O)N/N=C(\N=Nc2cccc([N+](=O)[O-])c2)c2ccc(N(CCC#N)CCC#N)cc2C)cc1`, the TGI is greater than 100 µM. Consider `COc1ccc2nc(N/N=C/c3sccc3C)cc(C)c2c1`, for which the TGI was determined as 69.3 µM.

`O=C1CS(=O)(=O)C(c2cccc(Oc3ccccc3)c2)N1c1ccc(Cl)cc1` (stereo not drawn): the TGI was greater than 100 µM. The same measure, in the same setting: the result for `CCOC1C(Br)Cn2c(=O)c3cc4ccccc4cc3c(=O)n2C1C` (stereo not drawn) reads greater than 100 µM; that for `O=C(O)c1c2c(cc3c1CC(Cc1ccccc1)C3=O)CCC2` (stereo not drawn), greater than 100 µM; that for `COc1cc(NS(=O)(=O)c2ccc(C)cc2)c2nccnc2c1`, greater than 100 µM. In the case of `COc1ccc2c(c1)NC1=C(C(=O)OC1)C2c1cc(OC)c(OC)c(OC)c1` (stereo not drawn), the GI50 is less than 0.01 µM and the TGI is greater than 100 µM.

With `CCCCCCCC(CC(=O)NC(CO)C(=O)NC(CO)CC(C)C)OC(=O)CC(CCCCCCC)OC(=O)CC(CCCCCCC)OC1OC(C)C(O)C(OC2OC(C)C(OC(C)=O)C(O)C2O)C1O` (stereo not drawn), the TGI came out at 22.8 µM.

For `CCOC(=O)Nc1cc2c(c(N)n1)N=C(c1ccc(OC)cc1)CN2`, the GI50 is 0.209 µM and the TGI was found to be 17.2 µM. Turning to `O=C1C=C(C2OC(CO)C(O)C2O)C(=O)N1` (stereo not drawn), the TGI was greater than 100 µM.

Take `CN(C)/C=C/C(=CC=[N+](C)C)/C=C/N(C)C`: the TGI was greater than 100 µM. Turning to `Cn1c(Cl)c(/C=C2/C(=O)Nc3ccccc32)c2ccccc21`, the GI50 was 1.95 µM and the TGI amounted to 29.9 µM. Take `CCOC(=O)CCC(NC(=O)c1ccc(Nc2nc3ccc(C(F)(F)F)cc3nc2-c2ccccc2)cc1)C(=O)OCC` (stereo not drawn): the TGI is greater than 100 µM. On to `COC(=O)[C@@H]1C=C[C@H](OC2OC(COC(C)=O)C(OC(C)=O)C(OC(C)=O)C2OC(C)=O)n2c(=O)n(-c3ccccc3)c(=O)n21` (stereo partly drawn), for which the TGI stood at 28.5 µM. Same read-out and setting: the result for `CN(/N=C/c1ccc(C(=O)O)cc1)C1=NCCCCN1` reads greater than 100 µM; that for `CC(=O)SCCC(NC(=S)Nc1ccccc1)P(=O)(Oc1ccccc1)Oc1ccccc1` (stereo not drawn), greater than 100 µM; that for `N[C@H](C(=O)O)[C@@H]1CC(Cl)=NO1`, greater than 1000 µM. Still for that read-out and setting: the result for `COc1cc(NCC(C#N)C#N)ccc1N=Nc1ccc(Cl)cc1` reads greater than 100 µM; that for `N#Cc1c(-c2ccc(Cl)cc2)c2c(n(C3OC(CO)C(O)C(O)C3O)c1=S)CCCC2` (stereo not drawn), greater than 100 µM.

The molecule `CN(C)CCC(=O)N1C/C(=C\c2ccc(Cl)c(Cl)c2)C(=O)/C(=C/c2ccc(Cl)c(Cl)c2)C1` gave a TGI of 1.69 µM. Take `COc1ccc2c(c1)OC1=C(C(=O)OC1)C2c1cc(OC)c2c(c1)OCCO2` (stereo not drawn): the GI50 is greater than 100 µM and the TGI is greater than 100 µM. Turning to `Clc1ccc(CCN(CCc2ccc(Cl)c(Cl)c2)CCN2CCCC2)cc1Cl`, the TGI was determined as 5.85 µM.

On to `COCCOC(=O)C1=C(O)c2ccccc2S(=O)(=O)N1C`, for which the TGI is greater than 100 µM.
